# Data taken from the supplement of paper PMC12217912.
# The list shows a part of the results. Sequences were assembled here from the parent chain. Inactive controls read about 0.05.
# B1: TEV protease; numbered along this chain (parent)
# chain: MGESLFKGPRDYNPISSSICHLTNESDGHTTSLYGIGFGPFIITNKHLFRRNNGTLVVQSLHGVFKVKDTTTLQQHLVDGRDMIIIRMPKDFPPFPQKLKFREPQREERICLVTTNFQTKSMSSMVSDTSCTFPSGDGIFWKHWIQTKDGQCGSPLVSTRDGFIVGIHSASNFTNTNNYFTSVPKNFMELLTNQEAQQWVSGWRLNADSVLWGGHKVFMVKPEEPFQPVKEATQL
# Variants of: B1
# Assay: raw area under fraction-flipped curve 0-4 h after induction (AUC4h, not background-subtracted), DNA-recorder readout of cleavage of the substrate (dimensionless); higher = more cleavage of the substrate by the protease variant
# Conditions: temperature: 34 °C; time window: 0-4 h after rhamnose induction
# Method: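 In vivo DNA recorder in E. coli TOP10(DE3) ΔrhaA at 34 °C. Each TEVp single-site mutant (parent TEVp 0) is paired with a single-site variant of the 7-mer TEVs (canonical ENLYFQ|S). The substrate sits between flexible linkers in a Bxb1-sfGFP-TEVs-SsrA fusion, so cleavage stabilises Bxb1 and speeds flipping of a recombination array, read by NGS. The value is the raw area under the fraction-flipped curve over 0-4 h after rhamnose induction (AUC4h), with ≥20 reads per time point. It is not background-subtracted; inactive controls average about 0.047.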
# 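Further: Bxb1 expression induced with 0.2% (w/v) L-rhamnose at OD600 near 0.5, cultures sampled hourly, flipped fraction per protease–substrate barcode pair counted by paired-end Illumina sequencing.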
Variant,area with substrate ENLAFQS,area with substrate ENLDFQS,area with substrate ENLEFQS,area with substrate ENLFFQS,area with substrate ENLGFQS,area with substrate ENLHFQS,area with substrate ENLIFQS,area with substrate ENLLFQS,area with substrate ENLNFQS,area with substrate ENLPFQS,area with substrate ENLQFQS,area with substrate ENLSFQS,area with substrate ENLKFQS,area with substrate ENLWFQS,area with substrate ENLCFQS,area with substrate ENLMFQS,area with substrate ENLRFQS,area with substrate ENLVFQS,area with substrate ENLTFQS
MGESLFKGPRDYNPISSSICHLTNESDGHTTSLYGIGFGPFIITNKHLFRRNNGTLVVQSLHGVFKVKDTTTLQQHLVDGRDMIIIRMPKDFPPFPQKLKFREPQREERICLVTTNFQTKSMSLMVSDTSCTFPSGDGIFWKHWIQTKDGQCGSPLVSTRDGFIVGIHSASNFTNTNNYFTSVPKNFMELLTNQEAQQWVSGWRLNADSVLWGGHKVFMVKPEEPFQPVKEATQL [S124L],0.069,0.0643,0.0569,0.0561,0.0559,0.0645,0.0584,0.0417,0.0637,0.0719,0.0666,0.0454,,,,,,,
MGESLFKGPRDYNPISSSICHLTNESDGHTTSLYGIGFGPFIITNKHLFRRNNGTLVVQSLHGVFKVKDTTTLQQHLVDGRDMIIIRMPKDFPPFPQKLKFREPQREERICLVTTNFQTKSMSHMVSDTSCTFPSGDGIFWKHWIQTKDGQCGSPLVSTRDGFIVGIHSASNFTNTNNYFTSVPKNFMELLTNQEAQQWVSGWRLNADSVLWGGHKVFMVKPEEPFQPVKEATQL [S124H],0.0676,0.0638,0.0583,0.113,0.0655,0.0717,0.0787,0.0752,,,,,0.09,0.0522,,,,,
MGESLFKGPRDYNPISSSICHLTNESDGHTTSLYGIGFGPFIITNKHLFRRNNGTLVVQSLHGVFKVKDTTTLQQHLVDGRDMIIIRMPKDFPPFPQKLKFREPQREERICLVTTNFQVKSMSSMVSDTSCTFPSGDGIFWKHWIQTKDGQCGSPLVSTRDGFIVGIHSASNFTNTNNYFTSVPKNFMELLTNQEAQQWVSGWRLNADSVLWGGHKVFMVKPEEPFQPVKEATQL [T119V],0.0603,0.0514,,0.0758,,0.0715,,,0.0597,,,0.057,0.0757,0.0902,0.0661,0.0718,,,
MGESLFKGPRDYNPISSSICHLTNESDGHTTSLYGIGFGPFIITNKHLFRRNNGTLVVQSLHGVFKVKDTTTLQQHLVDGRDMIIIRMPKDFPPFPQKLKFREPQREERICLVTTNFQYKSMSSMVSDTSCTFPSGDGIFWKHWIQTKDGQCGSPLVSTRDGFIVGIHSASNFTNTNNYFTSVPKNFMELLTNQEAQQWVSGWRLNADSVLWGGHKVFMVKPEEPFQPVKEATQL [T119Y],0.0594,0.0552,0.0986,0.089,0.0687,,,0.0909,0.0759,,0.117,0.0493,0.0767,0.0677,,,0.0751,0.0592,
MGESLFKGPRDYNPISSSICHLTNESDGHTTSLYGIGFGPFIITNKHLFRRNNGTLVVQSLHGVFKVKDTTTLQQHLVDGRDMIIIRMPKDFPPFPQKLKFREPQREERICLVTTNFQTKSMSSMVSDNSCTFPSGDGIFWKHWIQTKDGQCGSPLVSTRDGFIVGIHSASNFTNTNNYFTSVPKNFMELLTNQEAQQWVSGWRLNADSVLWGGHKVFMVKPEEPFQPVKEATQL [T129N],0.0422,0.0669,0.0527,0.0863,0.0605,0.0655,,,0.0754,0.0712,0.0671,0.068,0.0666,0.0757,0.0603,,,0.0755,
MGESLFKGPRDYNPISSSICHLTNESDGHTTSLYGIGFGPFIITNKHLFRRNNGTLVVQSLHGVFKVKDTTTLQQHLVDGRDMIIIRMPKDFPPFPQKLKFREPQREERICLVTTNFQTKSMSSMVSDTSCTRPSGDGIFWKHWIQTKDGQCGSPLVSTRDGFIVGIHSASNFTNTNNYFTSVPKNFMELLTNQEAQQWVSGWRLNADSVLWGGHKVFMVKPEEPFQPVKEATQL [F133R],0.0641,0.0657,,,,,,0.0711,0.0845,,0.0986,0.0692,0.0877,,,0.0804,0.127,0.0868,0.0853
MGESLFKGPRDYNPISSSICHLTNESDGHTTSLYGIGFGPFIITNKHLFRRNNGTLVVQSLHGVFKVKDTTTLQQHLVDGRDMIIIRMPKDFPPFPQKLKFREPQREERICLVTTNFQTKSMSSMVSDTSCTIPSGDGIFWKHWIQTKDGQCGSPLVSTRDGFIVGIHSASNFTNTNNYFTSVPKNFMELLTNQEAQQWVSGWRLNADSVLWGGHKVFMVKPEEPFQPVKEATQL [F133I],0.0942,0.0684,,0.0899,,0.0661,0.0895,,0.0675,,,,0.0846,,,,,0.0934,
MGESLFKGPRDYNPISSSICHLTNESDGHTTSLYGIGFGPFIITNKHLFRRNNGTLVVQSLHGVFKVKDTTTLQQHLVDGRDMIIIRMPKDFPPFPQKLKFREPQREERICLVTTNFQTSSMSSMVSDTSCTFPSGDGIFWKHWIQTKDGQCGSPLVSTRDGFIVGIHSASNFTNTNNYFTSVPKNFMELLTNQEAQQWVSGWRLNADSVLWGGHKVFMVKPEEPFQPVKEATQL [K120S],0.0626,,0.0589,0.102,,0.0706,,,0.0576,0.0687,0.0641,0.0696,0.06,0.0677,0.0635,,0.0718,,0.0567
MGESLFKGPRDYNPISSSICHLTNESDGHTTSLYGIGFGPFIITNKHLFRRNNGTLVVQSLHGVFKVKDTTTLQQHLVDGRDMIIIRMPKDFPPFPQKLKFREPQREERICLVTTNFQTKSMSSHVSDTSCTFPSGDGIFWKHWIQTKDGQCGSPLVSTRDGFIVGIHSASNFTNTNNYFTSVPKNFMELLTNQEAQQWVSGWRLNADSVLWGGHKVFMVKPEEPFQPVKEATQL [M125H],0.0717,0.0646,0.0737,0.0736,,0.0888,0.0864,0.0504,0.0681,0.0744,0.0765,0.0653,,,0.0735,,0.0705,0.0943,
MGESLFKGPRDYNPISSSICHLTNESDGHTTSLYGIGFGPFIITNKHLFRRNNGTLVVQSLHGVFKVKDTTTLQQHLVDGRDMIIIRMPKDFPPFPQKLKFREPQREERICLVTTNFQTKSMSSIVSDTSCTFPSGDGIFWKHWIQTKDGQCGSPLVSTRDGFIVGIHSASNFTNTNNYFTSVPKNFMELLTNQEAQQWVSGWRLNADSVLWGGHKVFMVKPEEPFQPVKEATQL [M125I],0.0825,0.0613,,0.0823,,,,,0.0851,0.0712,0.068,,0.0492,,,,,,
